Measured values reported in publication PMC8329185, “Distinct mutations in importin-β family nucleocytoplasmic transport receptors transportin-SR and importin-13 affect specific cargo binding” (Scientific Reports, 2021).

Experiments:
[1] = target: T1, GST-TrnSR (WT, without mCherry) (human, UniProt Q9Y5L0 1-923); experiment: SPR; localized SPR (OpenSPR, Nicoya); His6-DNAJB1 fixed on Ni2+-charged NTA sensor, GST-TrnSR injected at varying concentrations; TB with 0.05% Tween-20 without EGTA, 20 uL/min; His6-CBX1 in the reference channel; one-to-one model; details: both partners purified
T1 construct: transportin-SR (TrnSR), human cDNA in pGEX-6p3; used in the LSPR experiment; also called GST-NTR; source: E. coli BL21, purified (GSH-Sepharose 4B); not shown: GST, N-terminal, kept
T1 sequence (looked up): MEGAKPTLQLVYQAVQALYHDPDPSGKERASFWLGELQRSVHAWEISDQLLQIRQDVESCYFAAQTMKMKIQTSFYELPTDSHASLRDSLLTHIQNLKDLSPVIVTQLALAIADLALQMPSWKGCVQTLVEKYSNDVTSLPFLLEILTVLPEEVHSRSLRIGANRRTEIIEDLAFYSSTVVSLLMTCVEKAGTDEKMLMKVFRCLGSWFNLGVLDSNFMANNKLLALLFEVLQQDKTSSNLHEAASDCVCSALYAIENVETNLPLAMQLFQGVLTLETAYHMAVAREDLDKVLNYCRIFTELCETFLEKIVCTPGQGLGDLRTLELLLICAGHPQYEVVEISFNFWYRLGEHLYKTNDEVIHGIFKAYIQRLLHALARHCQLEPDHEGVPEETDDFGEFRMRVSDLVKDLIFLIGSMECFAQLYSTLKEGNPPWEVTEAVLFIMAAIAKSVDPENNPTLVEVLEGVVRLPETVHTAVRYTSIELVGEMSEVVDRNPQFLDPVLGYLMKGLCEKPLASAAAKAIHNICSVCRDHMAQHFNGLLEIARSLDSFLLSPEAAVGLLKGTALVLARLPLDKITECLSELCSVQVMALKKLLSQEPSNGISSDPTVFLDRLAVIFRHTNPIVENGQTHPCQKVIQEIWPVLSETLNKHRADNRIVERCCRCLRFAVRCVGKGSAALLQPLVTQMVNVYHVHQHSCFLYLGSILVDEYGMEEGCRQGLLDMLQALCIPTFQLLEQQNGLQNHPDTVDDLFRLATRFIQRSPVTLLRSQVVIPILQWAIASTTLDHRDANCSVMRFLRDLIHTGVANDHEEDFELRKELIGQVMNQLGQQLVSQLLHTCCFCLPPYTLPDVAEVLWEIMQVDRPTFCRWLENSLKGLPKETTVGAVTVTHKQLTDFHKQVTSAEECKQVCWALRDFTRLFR

[2] = target: T2, GST-TrnSR-D750R/D751R (without mCherry) (human, UniProt Q9Y5L0 1-923, D750R | D751R); experiment: as above; details: both partners purified
T2 construct: transportin-SR (TrnSR), human cDNA in pGEX-6p3, double mutant; used in the LSPR experiment; source: E. coli BL21, purified (GSH-Sepharose 4B); not shown: GST, N-terminal, kept
T2 sequence (looked up): T1 sequence (looked up) with D750R, D751R

- Kd [1]: ~7.4 nM
- Kd [2]: ~28 nM
B1: His6-DNAJB1 (natural protein, human)
chain: MGKDYYQTLGLARGASDEEIKRAYRRQALRYHPDKNKEPGAEEKFKEIAEAYDVLSDPRKREIFDRYGEEGLKGSGPSGGSGGGANGTSFSYTFHGDPHAMFAEFFGGRNPFDTFFGQRNGEEGMDIDDPFSGFPMGMGGFTNVNFGRSRSAQEPARKKQ[about 150 residues not printed]PERIPQTSRTVLEQVLPI
notes: DNAJB1, human (cDNA from a HeLa cDNA library); without GFP; fixed on the Ni-NTA sensor in LSPR; also called His6-tagged DNAJB1

Residue numbers refer to the chain shown, from its start.
